Assay results from the RNAGym collection of RNA variant scans (doi:10.7554/elife.90254).
Read counts are not given, so values of variants with three or more changes are uncertain.

B1: LINE1-mini (parent)
chain: GGCAGAGCUCAACACAGCGUGGCAAAGUGGCUGUGGCUAGACUGCC

Variants of: B1
Assay: self-cleavage, relative activity (ratio to wild type); higher = more cleavage; in vitro, sequencing; the parent is a self-cleaving ribozyme

Row | Variant | self-cleavage
1 | A6G U9G C10U | 0.02
2 | C13G G17U G27U | 0.12
3 | C18U G22C U43A C45U | 0.03
4 | G2U A11G C45U | 0.01
5 | C18A A24C C31U | 0.04
6 | G19U G21U C31A | 0.05
7 | C3A G44U C46A | 0.28
8 | G2C A16C A41G | 0.02
9 | G7A A16G G35A | 0.06
10 | C10G C15G A26C U32G G36A C45A | 0.01
11 | A4G A24C A26U C31A | 0.03
12 | G7C A16G A26C G44U | 0.07
13 | A11G G35U U38A | 0.02
14 | A6G C23A U28A | 0.27
15 | G5C G19U A41U | 0.15
16 | A16G U32C C42A G44A | 0.02
17 | A12C G36U C46U | 0.01
18 | A14U G33U U43A | 0.03
19 | C3U C42A G44C C45U | 0.06
20 | G2C C23U C31A | 0
21 | C3U C23A C42A | 0.14
22 | G5C A6U G44C | 0.04
23 | C8A A11C G19U A24U G44U | 0
24 | U20C G35C C37U | 0.06

Row | Variant | self-cleavage
25 | G17A C23A A24C U34C G36A | 0.03
26 | C10G G30C A39U | 0.03
27 | A4U C10U A26U G36C A41U U43G C45A | 0.03
28 | A11C G22C G27A | 0.02
29 | G7A G17C G19U | 0.08
30 | G1U C3A A39G | 0.36
31 | C3G C8U C18G | 0.06
32 | G19U G22C C42A | 0.15
33 | G7U C23A G40U | 0.62
34 | U28A G30A G35U U38A | 0.01
35 | G2C C3G C18G U20A | 0.02
36 | A6C G22U U28A G29C G35A | 0.04
37 | A11U G22A G35C | 0.01
38 | G5A A16C C23A U32A G44A | 0.02
39 | C13G G17C G27A A39G | 0
40 | A6U A14U C23A G30A C31U C37A A41U C45A | 0.13
41 | G1C A26C A41G | 0.03
42 | G1U C18A A26U G29U C46A | 0.92
43 | U28A U38G A39U | 0.1
44 | C8A C13U G36C C42A | 0.16
45 | G1C C37U G44C | 0.02
46 | G27C U34C C37A | 0.14
47 | G2C U28A G30U | 0.04
48 | C8U A12G U20C C23A | 0.07

Row | Variant | self-cleavage
49 | G19C G21U C23U | 1.21
50 | C23G G36C U38G C42G G44U | 0.02
51 | A4G C13A G33A G40U | 0.14
52 | U32C A39G G40C | 0.11
53 | A6G C15G C18A | 0.04
54 | C13G G29U C45G | 0.03
55 | G1U G29U U34A | 0.06
56 | A24G G35U A39C U43G | 0.3
57 | G1A G21U G35U A39U | 0.1
58 | C3A A11U C15U C23A | 0.03
59 | A12G C13U C23U | 0.02
60 | A12G A39C G44A C45G | 0.02
61 | A4G C31G G44C | 0.02
62 | C15A G19A U38C | 0.04
63 | C23A C31G C37A C46U | 0.04
64 | A4U G7C G40A C45U | 0.03
65 | G1A G2A U32A | 0.41
66 | A14C G33A G44C | 0.02
67 | A11U G19A U32G | 0.04
68 | G19A A39G G40U | 0.07
69 | C8A G40U C45G | 0.07
70 | G5U A11G U34C | 0.06
71 | A4U G7C G17U G21C G35U A41G | 0.05
72 | G1C G7C C10U C23U C46U | 0.01

Row | Variant | self-cleavage
73 | C13G U20C G29U G33U C46U | 0.11
74 | G7A C10A C15A G22C | 0.02
75 | C3U C23A G44C C46G | 0.16
76 | A4U C8U A12U A41C | 0.03
77 | G5U C8U A16G G44A | 0.13
78 | C3U C10G G22A C23G | 0.02
79 | C8U C31A C42G | 0.04
80 | G30A G40A G44U | 0.02
81 | C8U U9C A14U U38C C42U G44U | 0.03
82 | U9G G17A A24U | 0.04
83 | C3A C8A G19A | 1.83
84 | A4G C13A U28C C37A G44C | 0.01
85 | G2A A11U A24C G44A | 0.02
86 | A6C U9C A16C U32G U38A | 0.03
87 | G21A A39C C42G | 0.13
88 | G7U C10G G30A A41C | 0.02
89 | C10A C15U A41G | 0.05
90 | A14U U20A A24G G27A C46A | 0.35
91 | C13U A16U C23G C37G | 0.01
92 | C3U G29C U38C U43C | 0.02
93 | A11C G27A G36U | 0.01
94 | C10A A39G A41C | 0
95 | A24G G30C G36C | 0.02
96 | C10U C15A G19C G44C | 0.03

Row | Variant | self-cleavage
97 | A14U C31U C42A C46A | 0.01
98 | G35A G36C C45U | 0.26
99 | A6G A16U C18A | 0.08
100 | C13G U34C C42U U43G | 0.47
101 | G1A U32G G33A | 0.02
102 | G2A G17A G19U A25U G33U A39G C42A | 0.06
103 | G17C A41C C46U | 0.03
104 | A14G G33C U43A | 0.03
105 | G1U G17A G21U C23U | 0.02
106 | C3U G5U G30A C45A | 0.02
107 | A25U G27U C42U | 0.19
108 | A6C C10U C18A | 0.06
109 | U20G A24U U34A | 0.05
110 | G1C G30C G40A C46A | 0.02
111 | G17C A25C G33C | 0.02
112 | C13A A14G U28G U32A | 0.04
113 | A4U G21U G29U G33U U34C | 0.09
114 | A4U C8G C10U | 0.08
115 | C8A C10A A11G A12G A39C | 0
116 | C8U C18U G36A | 0.71
117 | G5U G27A U43A | 0.01
118 | A6U A14C U28G G30A A39U | 0.03
119 | A16C A24U U32C G36A | 0.01
120 | A4G C15G G22C A26C C46A | 0.01

Row | Variant | self-cleavage
121 | G5U C8U U20C G40U | 0.02
122 | A12U U43C C45U | 0.01
123 | C3U A11C C23U G33A | 0.03
124 | C3U A26C G36C A39C | 0.02
125 | A4U G22A A39C | 0.07
126 | C13A C15U G17A U28C G29U G40U C46U | 0.19
127 | G5U A6C C18A C42A | 0.03
128 | G17U U20A C31G G33U | 0
129 | G1C A11C C15A G44A | 0.01
130 | A11G G22C A26C G27U | 0.01
131 | G2A C10A G17A G29U A39U | 0.04
132 | C10A U28G G33A | 0
133 | A24G A25G A39G | 0.15
134 | A6C G7A A11G A26G | 0.01
135 | U20A U34A G36A | 0.05
136 | G5A G7A A12U G40A | 0.11
137 | G2U U9G A11C A16U C42U | 0
138 | C3A C23A C45G | 0.09
139 | G7U C8U G19C A25C U28G G36A | 0.05
140 | A4G A12U G30A | 0.14
141 | G2A C8A A26G | 0.38
142 | A12U G30U C45U | 0.08
143 | C3G C18U U20C U28C G35U G36U C45U | 0.01
144 | A6U U20C A25G G29U C46G | 0.57

Row | Variant | self-cleavage
145 | G1A G29C C42G | 0.03
146 | A4C G17A G36A | 0.11
147 | G2C C15U G21A G30U | 0.17
148 | C3U C31A A39U C46A | 0.01
149 | C10A A12G U32C U34G G35U G36C | 0.01
150 | G2A C18A C45A | 1.06
151 | G22C U28A C42U | 0.07
152 | G2U C15A A24C G27U | 0
153 | A4C C8U A11U A41G | 0.03
154 | C13G G27A U28G U43C | 0.04
155 | C10A C18A G29C U38A | 0.17
156 | A11U G22A A25C A26G C46A | 0.06
157 | A6C G7U C15U C31A U34C A39U | 0.08
158 | G1C C3U A14C G33C C42U | 0
159 | A16C U32C U38A | 0.01
160 | A16C A25C U28A G35U | 0
161 | G2U G5A A14C G29A G40A | 0.01
162 | C10A C15U C18A G22A G29A | 0.06
163 | G2U A14G G19A G44A | 0.02
164 | G35A G36C C42U | 0.15
165 | G1C C15U C37U | 0.01
166 | G2U A6U U9G G36C C42U | 0.02
167 | U20A G21C G22A | 0.46
